# Results published in PMC10726135.
# The other results are listed elsewhere or left out. At the low end of the ranking the order means little. Measured with an extract: partners may take part in the binding.
# Biological target: T1, HNF4alpha8 (COS-7 nuclear extract) (UniProt P41235-5)
# T1 sequence: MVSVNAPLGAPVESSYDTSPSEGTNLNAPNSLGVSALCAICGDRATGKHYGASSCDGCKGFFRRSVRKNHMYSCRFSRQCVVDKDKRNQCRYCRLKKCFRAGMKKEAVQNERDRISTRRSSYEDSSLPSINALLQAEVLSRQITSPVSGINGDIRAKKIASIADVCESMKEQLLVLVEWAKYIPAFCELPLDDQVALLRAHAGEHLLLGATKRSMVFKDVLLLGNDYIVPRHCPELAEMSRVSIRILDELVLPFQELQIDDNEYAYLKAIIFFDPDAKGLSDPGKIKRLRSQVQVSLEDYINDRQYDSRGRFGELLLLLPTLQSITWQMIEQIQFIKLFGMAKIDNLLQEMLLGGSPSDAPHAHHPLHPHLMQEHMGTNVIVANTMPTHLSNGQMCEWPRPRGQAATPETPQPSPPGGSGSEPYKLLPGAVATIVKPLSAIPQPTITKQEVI
# Assay: protein-binding microarray
# Details: COS-7 nuclear extract on double-stranded Agilent 4x180k PBM; binding buffer, salt, pH and temperature not given; high values mean tight binding; double strand, one strand shown; sequences stand for … in …GCCTAGGGAGATTAGAGTATCGGTCGA
row,Sequence,binding signal (log2 normalized intensity)
1,AAGGCAAGATCATTCCAGGAATGTTCAAGA,-0.959
2,TGGGCCCAGATATACAAGAAAGAAAGAATG,-0.471
3,GACTCCAAAGGGCTGGAGACTGAGTAACTA,-1.45
4,GGGGCATCGGTCTTTACACATCTGTTAGGA,0.636
5,TGGGCCACCTGAGACAGTTTATGCCAGCAA,-1.17
6,GTGTACTGGGCAGATAACAGCGAACATGAG,-1.14
7,TCCTATCACCATATCCCTGAGAGGCCAGTT,0.554
8,AGCAACAGCTGCAGTGAAATTCTGGCCAAC,-1.27
9,AGTTCAGAGAGGAATCGGCAGTTTGGGCCT,-0.873
10,TGGGCAGGGGCATCCTCATTGCCTCTGGGC,-1.05
11,CCCAGCCAGGAGCAGAAAGGAGGCAGAGAC,-1.23
12,ATAGGCTGGGATGATTTCAGCTTATAAATC,-1.39
13,TATCAGTGTAACTATTACTGGACAGCCAGC,-0.863
14,TTGCAAGTCTGAGGCTGCTCTCTGTCCCTG,0.546
15,GTCTGCAGCTGAACCATATTCTTTACATTT,-0.0571
16,TGAGAGAGCCCCTGTGATACAACGGTTCAA,0.435
17,GGTCATCAGGACTCTAACTGGCTTTAAGAG,-1.2
18,TGTGGCTGCCAAGACACAGAGAAAAAGAAG,-1.28
19,ACAACCCCTACTGTACCCTATGCACCCCAC,4.43
20,AGCCCCACAGAGCAAAGGTCATGCATAGAA,5.42
21,GGCTCAGCATTCTGAGGGCCTCCAATAGGG,-1.42
22,TAAGGAGGTAGAGTCTAAGGCTAAAACATC,-1.39
23,GCCCAACTCGGAGGACTGAGCCCGCTCCAC,-1.3
24,GGGCATTACTTGCTGGAGAAAGAGGGGAAG,-1.15
25,ATGAAAGCGCCTTGCTTTCTGCCCAGGGAG,-1.33

row,Sequence,binding signal (log2 normalized intensity)
1,GAGATAAGATCAGTATAGTTAGGGCCTTGC,-0.807
2,GAGTTTAAATGACCTCTGCCCTTCCACCCA,5.16
3,GAGGGAGACAACCTTTGGTCACTTGTAAGA,3.76
4,TCTCGCTGCTTCGGCCTTTGACCTCGTGAT,7.09
5,CTTTGTTCCCTGGCTCACTGACTCAGTCTT,0.203
6,TAAAGCCCTGGGGTAATAAAAGTGTACAAA,0.639
7,CAGAATTGCTGCTCCCCCTCCCAAATCGGT,4.07
8,CTGGAGGGACTGTGATGAAGGCAGAAAGAA,-1.32
9,ACAGCACCTCTCTGATGCCATGATAAGCAG,-1.33
10,GGCCTCAGGTTCAAAGGGCTTAATCTTTCC,2.3
11,CCTTTGGTGCCTCTTTTTTCTTGTTGACTT,1.91
12,CATAAACACAGACACACATGAGCTAGTGCT,-1.43
13,GGGTTCACATTCCAGCTCTGTGACTTTACC,1.09
14,ATTCCCTTCCCCTCCTTAGGAAAGAGACAT,2.47
15,TCCTTCTTGCTTAGGATAGGGTCAGTCTTT,2.48
16,CCCTAGACACCGGGTGAAGGTTAAATAGCT,-1.26
17,ATACTGGATAACCTTCCAGACAGAGAGGTC,1.83
18,AGCATGGTCCACAGCTTTGGGCATACAAAA,-1.32
19,AAATCTGCCCAACCTTTGCCCCTGGAGGGA,4.18
20,AGCAGTGACTTGAGAGGCCAGTTTCTCCAC,-1.36
21,AGCAAGAGCACAAGAACAAAAACTGTTTCT,-1.44
22,AGGGGGCAGGAGCCCAAGAAGCGTCAGTTG,-1.24
23,AATCGAATTGTGAAACTCAGAATCAGGGGA,-1.29
24,CCCTCCTCCTTTTTTTCCCCTCCCTCAGCT,3.51
25,AGAAGTAAGAAATCAGGAGCAAAGGTTGGG,1.89

row,Sequence,binding signal (log2 normalized intensity)
1,AGCAGGTGTTCACCTTCAGTCACACTGTTT,0.347
2,GGGCCATGACCTTTACCCCCATTTGGTAAT,7.13
3,AAGGTCAAACAGTGCACTGAAATCTCTCAA,-0.954
4,CAGTGATATTCTCTCGTCACCTCCACCCAC,2.77
5,GCTCTGGCCACTCCCTGGGCAGTGCAGTAT,-1.22
6,TCCCCACCCCCAACTTCCCCAACCCTTGCA,6.31
7,TCCCAGCATTCCAAGTGAGTAAGGAAAGCC,-1.28
8,GTCAGAGTGCTGCATGCAAAAAGGCTGACC,1.75
9,TTGCCCAGAGGGGTTCCTCAGTAAATGCTG,-1.04
10,GTGGACTTTCACCTCCACCAGATAGCAAGG,4.15
11,GGACCGCAGAGGCTGGAGCAGGCCATGTGC,-1.39
12,GAAAAGTGTTTGCCAAAGGATATCTTTAAT,0.613
13,GCGGAGAGGGTTCTCACTCCTCTATCAGTA,-1.37
14,TGCTGGAAACCTAGGAGTTATCTAAGACCC,-1.2
15,TTCACTTGCCACATTTATTGTGAGATTACG,0.83
16,ATGAAGATGCAGAACAAGGTAGCCACAGAA,-1.28
17,TCTCTGTTGACCACCTGCCCCAGGAATGCC,2.43
18,AACCACAGAAATGCCGCTAATGTATTTCGG,-0.807
19,AAGTCTCTAGATGGGGTTGAGCAGACTAAA,-0.554
20,CCTCCCCTCCCCCTTGGTGTTTAAACACAT,4.87
21,ATGACCAGCAGGGTGACCAGTGGACCATGA,3.07
22,GAGGAGCACAGAAGGAGAGAGAGGGAGAGT,-1.31
23,CAGAGATTGGAATCTCTGCACAGCATAGAA,-1.31
24,CTGAGAGTCACTGCCTTATCGTATTCTTAT,-0.107
25,AAAGAATAACGTTACAGTGGAGAAACCTGA,-1.41

row,Sequence,binding signal (log2 normalized intensity)
1,GTGATTAGTGCAAGAATCCAAGAATTCGAT,-1.32
2,GAGGGCGAGGCCGAGCCTCAGCCGGGAGAG,-1.3
3,CTTATCAGCAGGAGACCTGAAACTAGACCA,-1.4
4,CACATTTCAGGAATGTTTTATGTGCTCCAT,1.51
5,CACTAATCTGTCAGAAAACCCACGCCCACC,2.63
6,GGTTGTAAAATGAGGTCAGCATGGTGGGAG,1.04
7,AGGGAGGAAGGCAACCACAGCCTCTGCATT,-1.43
8,ATATCAACTGGACAAATTCCTGGGAACTGC,-1.28
9,TTCATAGGTCCTCTTGGAAGATGCCTTTTT,0.936
10,AATTGAGATAAACATGAAACAGTCACAGTT,-1.28
11,GCCCCGAGATAACCCCTCTCCAAGCCAGAA,4.01
12,CGAGAGAGCCTGGACACACGAATAATGGAG,-1.37
13,AGGGTTGGAATGTCTTTGGGTGGAGGGGAG,-0.87
14,TAAACAGTGACTCATGCAAGCCTGAGGGAG,-1.28
15,AAACCTGGTAGCGTGTAGTAAAGCTCATGA,-0.83
16,AAGCAAACATACTGCTTATTTAAATTTCTT,-1.34
17,GCTCTCCGTGGACTTTGCCCCCTACAGTTT,10.5
18,GACATTCAATTGCAAGCTTATCTTCCCAGG,-1.14
19,TAATTCTTCAAAGGAGTGGAGGAAGGAAGA,-1.35
20,GGAATGAAAGGAGGTCATGTACATGAAAGC,1.28
21,TGAATGTCCAACTTGCCCTGGTCTCACATC,1.37
22,CACGTGGCTAGATTGCAACCAAGTCCATCT,0.894
23,AGCACCTGAAGAATTTGGACTTTGCACTAA,9.19
24,CGGCTGGTATCCACAGGAGGCCCCATCGCA,-1.25
25,AATGGCAGACTAAACTCACAATGGGGCATG,-1.33

row,Sequence,binding signal (log2 normalized intensity)
1,TTGGACAGAGTTTGTGGTGTTTGTGGCATT,2.05
2,AAGGTCAATCTGGATTGTACTGTGTCTTGA,2.68
3,GCTACACAGATAAGCCATTCGTAACCTTCA,-1.34
4,CTTCGGCCAGCACAGGAGGCCTCTCAAAGC,-1.31
5,TGTTATCTCAGTAGACTAACGTATGGACTT,3.41
6,GCAACTACTCTCTCTTCTGGAGGAGGATCA,-1.28
7,TAGGTATGCCCCATGGTAAGAACTACAGTT,1.21
8,AGACCCTCTTTTCTTTGTACCGTATTTCAG,1.49
9,CATCCTGAACAAATGTACTGGATATAGCCA,-1.19
10,TTCTGGAGGATTAGTGGGAGATAAGGTGGA,-0.593
11,TCTTAGGAAAGCACAGCTGATTGCTCAACC,-1.3
12,TTGCCATGACCTTTGAAGCCCAGAACACTC,4.51
13,CCCAGCGGAAGTCCAGTGGTGTCTTACCGG,0.509
14,TGGTTCCTGGAAAAGTCTCAGGGGCCTTGC,-1.08
15,TCTCGGCCTTAAGAGTCAAAGGGCAAAGGA,3.71
16,TGGGATGGAACAAGGTCCCATGCACTGGCC,-1.2
17,GGAACTATTGGATTCCCCAATGCAGTACTA,-0.208
18,TGCATTCCTGTCCACCCTGAAAGAGAGGAG,-1.35
19,GCAGCTTGGGAGCAATTTAGCAGCACCATC,-1.48
20,ACTGAACATACAGGGTCTAGCAGTGCAGCG,-1.31
21,GGTCAAAGTACATCCCCTAAAACATCAAAT,3.45
22,GATTGCAACCAAGTCCATCTGTATTGCCTC,0.673
23,CTGTGAAGCACATCCTGTTCTAGCTCGGGG,-0.931
24,CCAGGCTGAAGTGGCCCAAGATGGAGATGA,-1.32
25,ATTGTGATGTGTGCGTTCATCTCACAGAGT,0.112

row,Sequence,binding signal (log2 normalized intensity)
1,TCAAAGGGCTTAATCTTTCCTGCCTGCCGG,-1.32
2,TTTCTATGTGACCTTCACCCTGCTGTAAAT,4.48
3,GTCCTTAAGATCCAAAGGAGTGGTCCTGCT,-1.34
4,GATCTAATGCACCCAGAACCCCCAGGTCAC,4.89
5,ACCTGTTCAGCCAGATTCTCTCACTGCTCT,-1.27
6,TGGACCACGTGGCTAGATTGCAACCAAGTC,-1.36
7,TTCCATTGAAGCAGAGTGTCCCATATCACA,0.828
8,CCCACAAAGCCTAAAATATTCACTATCTGA,-1.26
9,AAGATTCCTGCTCTAATGTTCCTTATCAGA,-1.4
10,TCTTGGCTTCTCTTGGACCTCAATGTGCTC,2.43
11,TGTAGCTAAAATGTTAATGATTACTAGAGA,-1.28
12,TTCAGAGGCAGGGACTGAGGAATCTGGCTG,-1.3
13,CGCCGAGCAGGCACCCCGGGAGCGCCGAGC,-1.33
14,AGAAAGAAGAGACAGCTGGGCCCTGCCTGA,-1.4
15,GGCATTCTTAACAAAACCTGTTTAGGATTA,-0.902
16,ACCAGAGGCTGAAGTGAAGTTACAAAGGTC,6.12
17,GGGCGAGAGAGTTCTATGGGATGACCTTTG,6.82
18,ACGTTTCTGTGGTCAGGGCCTTTCCAGCAA,-0.895
19,AAACAGATGTTGGTGGGAGGATTTCTTCAT,-1.13
20,CACTACTCCAGGGAGAAACCTGCCAGGTGG,-1.34
